Test results published in paper PMC4336329 (PLoS ONE, 2015).
Screen size: about 310,000 compounds; about 2,200 (0.71%) showed an effect of 50% or more. Effects have a minus sign here. This is one part of the list.

target: human ether-à-go-go-related gene (hERG) potassium channel (human, UniProt Q12809); experiment: primary screen, population patch clamp on CHO cells stably expressing hERG
Sequence (Q12809 whole entry, looked up): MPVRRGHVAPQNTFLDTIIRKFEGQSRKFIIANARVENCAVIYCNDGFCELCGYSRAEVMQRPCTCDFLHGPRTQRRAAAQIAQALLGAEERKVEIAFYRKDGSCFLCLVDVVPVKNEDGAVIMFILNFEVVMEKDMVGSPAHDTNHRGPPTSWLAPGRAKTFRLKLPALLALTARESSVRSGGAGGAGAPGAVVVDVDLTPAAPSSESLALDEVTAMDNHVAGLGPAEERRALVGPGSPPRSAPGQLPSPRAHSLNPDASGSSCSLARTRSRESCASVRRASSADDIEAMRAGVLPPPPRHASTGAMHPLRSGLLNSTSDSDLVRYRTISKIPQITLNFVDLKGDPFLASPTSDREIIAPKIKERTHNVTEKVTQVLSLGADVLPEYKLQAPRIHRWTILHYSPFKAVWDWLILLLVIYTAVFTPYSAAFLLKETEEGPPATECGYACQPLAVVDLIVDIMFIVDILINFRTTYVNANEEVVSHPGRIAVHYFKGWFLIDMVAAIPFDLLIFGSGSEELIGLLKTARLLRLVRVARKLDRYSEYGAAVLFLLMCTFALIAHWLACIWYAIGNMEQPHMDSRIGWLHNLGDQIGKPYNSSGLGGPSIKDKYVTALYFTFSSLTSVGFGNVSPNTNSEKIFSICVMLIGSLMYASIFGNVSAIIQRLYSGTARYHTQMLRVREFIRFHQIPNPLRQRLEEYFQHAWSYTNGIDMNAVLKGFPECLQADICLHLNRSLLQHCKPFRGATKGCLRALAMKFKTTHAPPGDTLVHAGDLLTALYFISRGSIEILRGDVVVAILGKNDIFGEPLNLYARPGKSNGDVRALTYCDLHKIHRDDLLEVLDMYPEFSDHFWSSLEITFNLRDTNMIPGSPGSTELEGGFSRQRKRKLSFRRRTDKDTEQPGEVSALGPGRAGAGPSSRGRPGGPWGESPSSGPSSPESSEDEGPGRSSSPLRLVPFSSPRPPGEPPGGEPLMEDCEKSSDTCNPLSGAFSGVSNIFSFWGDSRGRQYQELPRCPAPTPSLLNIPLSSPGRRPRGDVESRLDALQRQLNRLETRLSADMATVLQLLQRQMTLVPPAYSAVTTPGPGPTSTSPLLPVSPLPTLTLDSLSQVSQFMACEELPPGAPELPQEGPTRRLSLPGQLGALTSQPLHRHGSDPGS

| SMILES | hERG current change (%, negative = inhibition) at 1uM |
| --- | --- |
| CC(CC(=O)Nc1cc(C(F)(F)F)ccc1Cl)c1ccccc1 (stereo not shown) | 11.6% |
| COc1ccc(C2CCCN2C(=O)Nc2ccc(F)cc2)cc1OC (stereo not shown) | 3.04% |
| O=c1[nH]c(C(F)(F)F)nc2ccc3ccccc3c12 | 10.3% |
| COc1ccc(NC(=O)/C=C/c2cc(Br)ccc2OC)cc1 | 14.2% |
| COc1ccc(C(C(=O)NC2CCCC2)N(CCC(C)C)C(=O)CCC(=O)Nc2cc(C)on2)cc1 (stereo not shown) | 24.7% |
| CCOC(=O)C1(Cc2cccc(Cl)c2)CCCN(C(=O)c2c(CC)noc2C)C1 (stereo not shown) | 4.83% |
| O=C(CCC(=O)OCCCC(F)(F)C(F)(F)F)Nc1ccccc1 | 14% |
| CCN(CC)C(=O)CSc1nc(N)c(-c2ccccc2)c(=O)[nH]1 | 12.9% |
| CS(=O)(=O)N(CC(=O)NCC1CCCO1)c1cc(Cl)ccc1Cl (stereo not shown) | 6.18% |
| Cc1onc(-c2ccccc2)c1C(=O)Nc1nnc(CC(C)(C)C)s1 | 14.3% |
| COc1ccc(C(=O)NC(=S)NNC(=O)c2ccc(O)cc2)cc1[N+](=O)[O-] | 14.3% |
| Cc1[nH]n(-c2ccc([N+](=O)[O-])cc2)c(=O)c1C=NCCc1c(C)[nH]c2ccccc12 | 15.2% |
| Cc1ccc(NC(=O)C[n+]2cc(-c3ccccc3)n3c2CCC3)cc1.[Cl-] | 2.87% |
| CCOc1cc2c(cc1OCC)C(c1ccc(F)cc1)NCC2 (stereo not shown) | 1.51% |
| CN(CC(=O)Nc1ccccc1Br)C(=O)CN(C)C1CCCCC1 | 11.2% |
| CC(O)C1CCC2C3CC[C@H]4CC(O)CCC4(C)C3CC3(OCCO3)C12C (stereo partly shown) | 0.154% |
| O=C(NCCSCc1ccco1)Nc1cccc(Cl)c1 | 1.49% |
| CCC(C)[C@H](NC(=O)NC1CCCc2ccccc21)C(=O)OC (stereo partly shown) | 12% |
| NS(=O)(=O)c1ccc(CCNC(=O)CCNS(=O)(=O)c2ccccc2C(F)(F)F)cc1 | 8.45% |
| CC12CCC(C(=O)Nc3cccc(Cl)c3)(C(Br)C1=O)C2(C)C (stereo not shown) | 7.65% |
| CC(C)Oc1ccc(CNCCC2(C(C)C)CCOC(C)(C)C2)cc1 (stereo not shown) | -8.86% |
| COc1ccc(CCNC(=O)CSc2nnc(CNC(=O)c3ccccc3F)o2)cc1OC | 12.3% |

| SMILES | hERG current change (%, negative = inhibition) at 1uM |
| --- | --- |
| CCn1c(=O)c2ccccc2n(CC(=O)NC2CCCCC2)c1=O | 15.1% |
| C#CCOCCOCCOCCNc1nc(N2CCN(C(=O)CCCCCCCCCCNC(=O)Cn3cc(CCCCCN)nn3)CC2)nc(N2CCN(C(=O)CCCCCCCCCCNC(=O)[C@@H]([C@H](C)O)n3cc(C)nn3)CC2)n1 | 7.97% |
| COc1ccccc1NS(=O)(=O)c1ccc(C)c(C(=O)NCC(c2ccco2)N(C)C)c1 (stereo not shown) | 9.87% |
| C=CCSc1nnc(NC(=O)CCN2C(=O)C3CC=CCC3C2=O)s1 (stereo not shown) | 4.55% |
| O=c1c2ccccc2ncn1Cc1ccc2c(c1)OCO2 | 14.1% |
| Cc1ccc(N(C(=O)Cn2nnc(-c3ccccc3F)n2)C(C(=O)NC2CCCC2)c2ccncc2)cc1 (stereo not shown) | 8.61% |
| O=C(c1ccccc1)N(Cc1ccc2c(c1)OCO2)Cc1nc2ccccc2c(=O)[nH]1 | 5.35% |
| CCN(CC)CCNC(=O)c1cccc(NC(=O)C(=O)c2cc(Br)ccc2NC(C)=O)c1 | -2.69% |
| Cc1[nH]c(=O)[nH]c(=O)c1S(=O)(=O)N1CCN(c2ccccc2)CC1 | 16.8% |
| CCOC(=O)c1c(NC(=O)CSc2nnc(C)c(=O)[nH]2)sc2c1CCC2 | 2.02% |
| COc1cc(OC)cc(C(=O)OCC(=O)NCCCc2ccccc2)c1 | 13.5% |
| Cc1cc2cc(CNC(=O)c3ccc(S(=O)(=O)N4CCCC4)cc3)ccc2n1C | 9.1% |
| O=C(N/N=C/c1ccc(N2CCCC2)c([N+](=O)[O-])c1)c1cccnc1 | 4.06% |
| CC(C)CN(C(=O)CCC(=O)OCC(=O)NCCc1ccccc1)c1c(N)n(CC(C)C)c(=O)[nH]c1=O | -0.265% |
| COc1ccccc1/C=C(/NC(=O)c1ccccc1)C(=O)NCCN1CCOCC1 | 13.6% |
| COC(=O)CN1C(=O)COc2ccc(S(=O)(=O)N3CCCCCC3)cc21 | 9% |
| N/C(=N\c1nc(CSc2nnnn2-c2ccccc2)cc(=O)[nH]1)Nc1ccccc1 | 20.4% |
| CCOC(=O)N/N=C/C=C/c1ccccc1[N+](=O)[O-] | 8.8% |
| C=CCNc1nc(NCc2ccccc2)nc(OCC)n1 | 1.14% |
| CCOc1ccc(S(=O)(=O)N2CCC(C(=O)NCC3CCCO3)CC2)cc1C (stereo not shown) | 15.5% |
| Cn1cc(-c2nnc(-c3ccccc3)o2)c2ccccc21 | 10.3% |
